Results published in the BET-seq Pho4 binding data (Le et al. 2018).
Some of the results follow. The energies were worked out here from pooled read counts, against the library average; single values are noisy.

Each sequence was assayed against T1, Pho4 (S. cerevisiae) (UniProt P07270) (assay: relative binding free energy (BET-seq); higher = weaker binding). Conditions: reference: library average.
T1 sequence: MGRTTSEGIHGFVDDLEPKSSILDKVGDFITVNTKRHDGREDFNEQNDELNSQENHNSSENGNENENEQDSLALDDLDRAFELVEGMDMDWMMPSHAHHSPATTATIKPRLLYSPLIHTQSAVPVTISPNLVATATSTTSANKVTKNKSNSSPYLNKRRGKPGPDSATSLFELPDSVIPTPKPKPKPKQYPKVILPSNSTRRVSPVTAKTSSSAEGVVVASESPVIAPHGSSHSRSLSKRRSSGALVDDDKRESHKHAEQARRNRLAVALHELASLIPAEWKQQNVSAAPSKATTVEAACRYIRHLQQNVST

Row | Sequence | relative binding free energy [kcal/mol]
1 | GTATTCACGTGTGTTG | 0.27
2 | AGGTGCACGTGCTATG | -0.26
3 | GCACTCACGTGGGGTG | 0.02
4 | TCGTGCACGTGGTGAG | -0.09
5 | AATGGCACGTGTGAAT | -0.01
6 | TATAACACGTGGCGAT | 0.06
7 | TATAGCACGTGGTATA | -0.25
8 | CGATTCACGTGGGGTT | 0.13
9 | ATCGACACGTGGGTAT | -0.05
10 | GGGTTCACGTGATTGA | 0.52
11 | ATTTACACGTGTAAAT | -0.01
12 | GAGTCCACGTGGTATT | 0.05
13 | GATACCACGTGTGGGG | -0.13
14 | GGAGACACGTGTGAGG | 0.09
15 | TTGTTCACGTGGGTCT | 0.17
16 | GAGGTCACGTGATCTG | 0.25
17 | TTGTTCACGTGAGGTA | 0.54
18 | TACGGCACGTGGAGTT | 0.05
19 | CTTTGCACGTGTCTTG | -0.03
20 | GGCATCACGTGAGTTT | 0.25
21 | TGTGCCACGTGGGAGC | -0.18
22 | TGGACCACGTGATGTT | 0.1
23 | AATTTCACGTGAGTTG | 0.35

Row | Sequence | relative binding free energy [kcal/mol]
24 | TCTGTCACGTGGGACG | 0.06
25 | GTTCACACGTGATTAT | 0.35
26 | CGGGTCACGTGATTCT | 0.26
27 | AAGTGCACGTGTGGCG | 0.04
28 | GGAGCCACGTGTGTTT | 0.16
29 | CGGTGCACGTGGCGTT | -0.16
30 | GTGTCCACGTGGTTCG | 0.11
31 | GTGTTCACGTGTACGT | 0.4
32 | TCGTGCACGTGGGTGG | -0.12
33 | ATGTGCACGTGTCTTG | -0.19
34 | GTGCTCACGTGTAGTT | 0.26
35 | GGATTCACGTGTTTTA | 0.26
36 | AAGTTCACGTGTAGGG | 0.3
37 | TGGTGCACGTGGTGCG | -0.05
38 | ACTGGCACGTGTGAAG | -0.02
39 | AGTGGCACGTGGGTAG | -0.29
40 | TTGGACACGTGGTCGA | -0.22
41 | GTGGGCACGTGCGACA | -0.01
42 | GAGATCACGTGTAGGG | 0.07
43 | GACGGCACGTGGGGAG | -0.19
44 | TGTTGCACGTGCGTTT | -0.12
45 | TAAAGCACGTGGGTGT | -0.18
46 | TCTGTCACGTGTTCGT | 0.03

Row | Sequence | relative binding free energy [kcal/mol]
47 | TTGCGCACGTGGATTG | -0.07
48 | GTCGGCACGTGTATGA | 0.11
49 | ATCGTCACGTGTTAGT | 0.01
50 | TTTTTCACGTGACGAT | 0.35
51 | TGGTTCACGTGGTGCC | 0.26
52 | GCCTGCACGTGGGTGT | -0.28
53 | CGAGGCACGTGTAATT | 0.11
54 | TAAAGCACGTGTGGAG | 0
55 | GTTCGCACGTGAGTAG | 0.32
56 | TGTGGCACGTGTTGAA | -0.06
57 | GAAGGCACGTGTGCTT | 0.03
58 | TTGTGCACGTGTCCGG | -0.02
59 | AGCGACACGTGTGTGT | -0.12
60 | TTTGCCACGTGGCATT | -0.06
61 | GCGTGCACGTGATGTT | 0.18
62 | GGGTCCACGTGGTGAC | 0.15
63 | AAGGGCACGTGACGTG | 0.07
64 | ATGATCACGTGGTTGA | 0.09
65 | CGAAGCACGTGGTGGA | 0.05
66 | TTTGGCACGTGCTCGG | -0.12
67 | TAGGGCACGTGATATA | 0
68 | TTCGGCACGTGAGTAG | 0.05
69 | TCCGTCACGTGGGTAG | -0.08

Row | Sequence | relative binding free energy [kcal/mol]
70 | AGTTACACGTGGACGT | 0.09
71 | TGAGTCACGTGTGGTA | 0.14
72 | TGTAGCACGTGGGGCG | -0.25
73 | ACTAGCACGTGTGTTG | -0.08
74 | ATTGTCACGTGGGTCC | 0
75 | GGGCCCACGTGAAGGT | 0.25
76 | AGTTCCACGTGTTGTG | 0.08
77 | GCGGGCACGTGTTTGA | -0.01
78 | AGGAGCACGTGTTTGT | -0.06
79 | ATTGGCACGTGCAGGC | -0.12
80 | AAATGCACGTGATTGG | 0.15
81 | GTTCTCACGTGATGCT | 0.31
82 | CGTTGCACGTGTGTTG | -0.06
83 | GTTTTCACGTGTGAGG | 0.37
84 | GTTCTCACGTGGGGTA | 0.11
85 | GTAGACACGTGGTTGG | 0.02
86 | AACGTCACGTGTTTAG | 0.22
87 | TTAGACACGTGTGGGA | 0.19
88 | GTTAACACGTGGCGGC | 0.19
89 | GGCTGCACGTGGGGGG | -0.09
90 | GTTAACACGTGGGGAG | 0.05
91 | ATGGCCACGTGGAGTG | -0.03
92 | TAAGCCACGTGTGGGT | -0.16

Row | Sequence | relative binding free energy [kcal/mol]
93 | AGTGGCACGTGACGGA | 0.05
94 | TTAGACACGTGTTATT | -0.01
95 | TATCTCACGTGTTAAT | 0.28
96 | GTAGGCACGTGATTAT | 0.09
97 | GATTCCACGTGGGTGT | -0.09
98 | AGGATCACGTGGGCAT | 0.06
99 | GGTGTCACGTGGCGCA | 0.04
100 | AGTTACACGTGACAGT | 0.23
101 | CATTTCACGTGTGTTA | 0.18
102 | ATTTGCACGTGGGCGG | -0.09
103 | TGTGACACGTGGAAGG | 0.06
104 | AACGTCACGTGTGGGC | 0.26
105 | TGTAGCACGTGTTAGC | -0.02
106 | GGCAACACGTGAAGGG | 0.18
107 | GATATCACGTGTGTAG | 0.38
108 | GGTTCCACGTGTAGGG | 0.18
109 | TCTTGCACGTGGGGTC | -0.08
110 | TATTGCACGTGTGTAA | -0.03
111 | AAAATCACGTGAGTTT | 0.24
112 | GTGGGCACGTGTTTAA | 0.1
113 | CAGATCACGTGTTTTT | 0.16
114 | GTCAACACGTGTTTGT | 0.06
115 | AGGGACACGTGGCGGG | -0.14
